Test results reported in PubChem BioAssay AID1461 (National Center for Advancing Translational Sciences (NCATS), 2008).
Hit rate of the full screen: of about 220,000 compounds, about 2,300 (1%) were called active. Inconclusive means that the source gave no clear call. Such entries were picked first, then a sample of the others. The call rests on the fitted dose curve; in most records, active means well fitted inhibition curve with a large enough effect; inconclusive means small, poorly fitted or top-dose-only effect, or effect the other way; inactive means no such curve, though single readings can be large or run the other way. Potencies of inconclusive entries are left out as doubtful fits.

What follows are molecules tested against Neuropeptide S receptor (Homo sapiens) (UniProt Q6W5P4) (assay: qHTS Assay for Antagonists of the Neuropeptide S Receptor: cAMP Signal Transduction). Details: CHO-NPSR cells, cAMP TR-FRET, antagonist mode; activity change, negative = inhibition: at 38.3 µM (top of the series) unless noted.
UniProt Q6W5P4, sequence (Q6W5P4 whole entry, looked up): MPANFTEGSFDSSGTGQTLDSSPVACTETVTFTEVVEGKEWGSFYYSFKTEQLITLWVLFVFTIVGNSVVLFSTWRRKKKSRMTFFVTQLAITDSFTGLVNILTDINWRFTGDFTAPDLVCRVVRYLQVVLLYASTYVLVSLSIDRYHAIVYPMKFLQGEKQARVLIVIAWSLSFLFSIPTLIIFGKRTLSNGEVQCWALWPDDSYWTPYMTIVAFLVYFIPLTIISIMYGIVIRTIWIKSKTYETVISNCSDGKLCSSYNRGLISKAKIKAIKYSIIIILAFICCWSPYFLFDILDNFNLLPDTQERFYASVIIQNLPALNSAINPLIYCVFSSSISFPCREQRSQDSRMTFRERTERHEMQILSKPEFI
Source text: NIH Chemical Genomics Center [NCGC] NIH Molecular Libraries Probe Production centers Network [MLPCN] MLPCN Grant: X01-DA026210-01 Assay Submitter (PI): Heilig, Markus Alexander NCGC Assay Overview: Neuropeptide S receptor (NPSR), previously known as GPR154, is a recently de-orphanized G protein coupled receptor. Its endogenous ligand is the 20 amino acids peptide Neuropeptide S (NPS). […] NPS and its receptor are found in various tissues. Specifically they are highly expressed in brain areas that have been implicated in modulation of arousal, stress and anxiety. Central administration of NPS in mice produces an unusual profile of activity by inducing wakefulness and arousal, while at the same time suppressing anxiety. Therefore, NPSR may represent a novel drug target for the treatment of sleep and anxiety disorders. To identify NPSR antagonists, we developed a cell-based cAMP assay. NPS can stimulate the production of cAMP in Chinese hamster ovary cells stably expressing NPS receptor. This change in intracellular cAMP level can be detected by a homogeneous LANCE cAMP assay based on the TR-FRET (time resolved fluorescence resonance energy transfer) between a europium-labeled cAMP tracer complex and a cAMP-specific antibody labeled with Alexa Fluor 647. The europium-labeled cAMP tracer complex is formed by the tight interaction between Biotin-cAMP (b-cAMP) and streptavidin labeled with Europium-W8044 chelate (Eu-SA). Light pulse at 320 nm excites the europium of the cAMP tracer and the energy emitted is transferred to the Alexa molecule bound to the cAMP antibody, generating a TR-FRET signal at 665 nm. Residual energy from the europium will produce a light at 620 nm. The native unlabeled cAMP from cell lysates competes with the europium-cAMP tracer for antibody binding and reversely reduces the emission signal of Alexa by interrupting FRET between the two labeled molecules. Both emission signals from the FRET donor (620 nm) and the acceptor (665 nm) can be detected by a plate reader in the TRF mode. Expression of result in fluorescence ratio (665 nm/620 nm) helps to normalize differences due to cell density and reagent dispensing. This assay was successfully optimized to a 1536-well plate format.
NCGC Assay Protocol Summary: A Chinese hamster ovary (CHO) cell line stably expressing the NPS receptor (CHO-NPSR) was obtained from Dr. Heilig lab at NIAAA and maintained in F-12 Kaighn's media (Invitrogen, Carlsbad, CA, 21127) supplemented with 10 % FBS, 100 units/ml penicillin, 100 ug/ml streptomycin and 250 ug/ml geneticin at 37C, 5% CO2 in a humidified atmosphere. Before the assay, aliquots of cells were frozen and stored at -135C. The assay was performed in 1536-well format. Data are reported for both the ratio of the two emission wavelengths, and also for the component 'donor' channel, Em2=620. Data were normalized to the controls for basal activity (DMSO only) and 100% inhibition (No NPS control). IC50 values were determined from concentration-response data modeled with the standard Hill equation. NPS 1536-well assay protocol: (1) Fresh or frozen CHO-NPSR cells were suspended in F-12 Kaighn's media supplemented with 10 % FBS, 100 units/ml penicillin and 100 ug/ml streptomycin. Cells were plated at 4 ul/well (1200 cells) to white, tissue culture treated 1536-well plates, and then cultured at 37C, 5 % CO2 for 16 to 30 hours. (2) Add 23 nl/well of compound in DMSO solution. The final titration for each compound was between 0.6 nM and 46 uM. (3) Add 1 ul of stimulation reagent (1X HBSS buffer, 5 mM HEPES, 0.1% BSA, 500 uM RO-201724 (Sigma-Aldrich, B8279), 1.5% Alexa 647-labeled anti-cAMP antibody (from Perkin Elmer), 100 nM NPS) (4) Incubation at 37C, 5 % CO2 for 60 min. (5) Add 1 ul/well detection reagent. Detection reagent was prepared by adding biotin labeled cAMP (4%), streptavidin labeled with Europium-W8044 chelate (1.33%) and TritonX-100 (1%) to detection buffer. […]
Further: nearly all actives have a fitted effect of over 50% in size.
On the % scale 0 is the no-effect control and ±100 the full control effect; potency means the concentration at half of the fitted maximal effect; tags describe the fitted curve by direction and shape.

SMILES | Potency | activity change, negative = inhibition
Cc1ccc(C(C#N)c2ccc3c(C(F)(F)F)cc(C(F)(F)F)nc3n2)cc1 (configuration not stated) | inactive | –
O=S(=O)(c1cccc2c(I)cccc12)N1CCCNCC1 | inconclusive [activator, partial curve] | –
O=C(c1ccccc1)N1CCC(c2nc3c(nnn3Cc3ccccc3Cl)c(=O)[nH]2)CC1 | inconclusive [inhibitor, single point] | –
Cc1cccc(OCC(=O)Nc2cc(S(=O)(=O)N3CCCCC3)ccc2N2CCN(C)CC2)c1 | inactive | –
FC(F)(F)c1cnc(NNC(=S)Nc2cccnc2)c(Cl)c1 | inactive | –
Cc1cccc2sc(N(CCCN(C)C)C(=O)c3sc4ccccc4c3Cl)nc12 | inconclusive [activator, partial curve, poor fit] | –
COCCN(C)Cc1cn(-c2ccc(F)cc2F)nc1-c1ccccc1C | inactive | –
CC1(C)C(=O)Nc2ccccc2N1C(=O)Cn1ncc(Cl)c(Cl)c1=O | inconclusive [activator, single point] | –
COc1cc(NC2c3ccccc3C(=O)N2Cc2ccc3c(c2)OCO3)cc(OC)c1OC (configuration not stated) | inactive | –
O=C(N/C(=C\c1cccc([N+](=O)[O-])c1)C(=O)N1CCCCC1)c1cccs1 | inconclusive [activator, partial curve] | –
Cc1ccc(C=Nc2ccc(N(C)C)cc2)o1 | inconclusive [inhibitor, partial curve, poor fit] | –
COCC(=O)Nc1nnc(-c2ccc(C(C)(C)C)cc2)s1 | inactive | –
CC1=CC(C)(C)N(C(=O)CN2C(=O)c3ccccc3C2=O)c2ccc(C)cc21 | inconclusive [inhibitor, single point] | –
O=C(COc1ccccc1F)NCc1nc2ccccc2[nH]1 | inactive | –
O=C(NC(=O)c1cc(OCC(F)(F)F)ccc1OCC(F)(F)F)Nc1ccccc1 | inconclusive [activator, partial curve] | –
Cc1cccc(C)c1OCC(=O)N/N=C/c1cc2c(cc1[N+](=O)[O-])OCO2 | inconclusive [inhibitor, single point] | –
CCOc1cc(C)c(Cl)cc1S(=O)(=O)n1nnc2ccccc21 | inconclusive [inhibitor, single point] | –
CN(C)/C=N/C(=S)Nc1ccc(F)cc1 | inactive | –
CN1CCC(=C2c3ccccc3CC(=O)c3sccc32)CC1 | inconclusive [inhibitor, single point] | –
CCc1ccc(-n2c(CSc3nnnn3-c3ccccc3)nc3ccccc3c2=O)cc1 | inactive | –
O=C(COC(=O)c1ccc(-c2cnc3ccccc3n2)cc1)c1ccccc1 | inconclusive [inhibitor, single point] | –
COc1ccccc1C/C(N)=N/OC(=O)c1ccc(C)c([N+](=O)[O-])c1 | inactive | –
Cc1ccc2cc(C#N)c(SCC(=O)NNC(=O)Cc3ccccc3)nc2c1 | active: 7.94 µM | –
CC(NC(=O)CSc1nc2c(cc1C#N)CN(C)CC2)c1ccccc1 (configuration not stated) | inconclusive [inhibitor, partial curve] | –

SMILES | Potency | activity change, negative = inhibition
Cc1scc(C(=O)N/N=C/c2ccc(OC(C)C)cc2)c1C | inactive | –
CCOC(=O)c1c(C)[nH]c(C(=O)OCc2c(C)noc2C)c1C | inconclusive [inhibitor, partial curve] | –
COc1ccc(Nc2cc(C)nc(-n3nc(C)cc3C)n2)cc1 | inconclusive [activator, partial curve] | –
C=CCNS(=O)(=O)c1sccc1/C=N/O | inconclusive [inhibitor, partial curve, poor fit] | –
CC1CCCN(C(=O)CNC(=O)Cn2ccc3ccccc3c2=O)C1 (configuration not stated) | inactive | –
COC(=O)CSc1nc2cc(C)cc(C)c2cc1C#N | inconclusive [inhibitor, single point] | –
CCC(C)NS(=O)(=O)c1ccc(S(=O)(=O)N(CC(=O)Nc2ccccc2)Cc2ccco2)cc1 (configuration not stated) | inactive | –
O=C(CCNc1cc(Cl)cc(Cl)c1)c1ccco1 | inconclusive [inhibitor, single point] | –
COCCn1c(SCC#N)nnc1-c1ccc(OC)cc1 | inactive | –
Cc1ccc2nc(NC(=O)C(NS(=O)(=O)c3cccc4nsnc34)C(C)C)sc2c1 (configuration not stated) | inconclusive [inhibitor, partial curve, poor fit] | –
CC1CN(C(=S)NC(=O)c2ccc([N+](=O)[O-])cc2)CC(C)O1 (configuration not stated) | inconclusive [inhibitor, single point] | –
O=C(Cn1cc(-c2nnnn2-c2ccc(Cl)cc2)c(=O)c2ccccc21)c1ccccc1 | inconclusive [inhibitor, single point] | –
CCOc1ccc2[nH]c(=O)c(CN(Cc3cccs3)Cc3nnnn3C(C)(C)CC)cc2c1 | inconclusive [inhibitor, partial curve] | –
CCn1c(SCC(=O)Nc2ccc(C)cc2)nnc1-c1ccccn1 | inconclusive [activator, single point] | –
CC(C)(C)c1ccc(OC(=O)Nc2ccc(O)c(C(=O)O)c2)cc1 | inactive | –
COCCOc1cc(NC(=O)c2sccc2Oc2ccc([N+](=O)[O-])cc2F)c(Cl)cc1Cl | inconclusive [inhibitor, single point] | –
Cc1cc2oc3c(c(=O)c2cc1C)C(c1cccc(Br)c1)N(Cc1ccco1)C3=O (configuration not stated) | inconclusive [inhibitor, full curve, poor fit] | –
Cc1cccc(Cc2c(C)nc3c(C(=O)N4CCN(Cc5ccc6c(c5)OCO6)CC4)cnn3c2C)c1 | inconclusive [inhibitor, partial curve] | –
CCCCCCCCCCCCCCCC[n+]1ccc(/C=N/O)cc1 | active: 5.01 µM | –
COc1cc(-c2nc(-c3ccccc3)c(-c3ccc(F)cc3)[nH]2)cc2c1OCO2 | inconclusive [inhibitor, single point] | –
Cc1ccc(Nc2nc(-c3sc(NC(=O)c4ccc([N+](=O)[O-])cc4)nc3C)cs2)cc1 | inactive | –
COC(=O)c1ccc(SC2CCCCC2)c([N+](=O)[O-])c1 | inactive | –
Cc1ccc(S(=O)(=O)Nc2ccc(S(=O)(=O)N3CCCC3)cc2)cc1 | inactive | –
CCCNC(=S)N(Cc1ccccc1)Cc1nc2ccccc2c(=O)[nH]1 | inactive | –

SMILES | Potency | activity change, negative = inhibition
O=C1N/C(=N\N=C\c2ccccn2)SC1Cc1cccc(SC(F)F)c1 (configuration not stated) | inconclusive [inhibitor, single point] | –
Cc1ccc(C(=O)C(OC(=O)COc2ccccc2C)c2ccccc2)cc1 (configuration not stated) | inconclusive [inhibitor, partial curve] | –
Cc1cc(C)nc(NC(=O)CSc2nnnn2-c2ccccc2)n1 | inactive | –
Oc1c(C(Nc2ccccn2)c2ccccn2)ccc2cccnc12 (configuration not stated) | inconclusive [inhibitor, single point] | –
Cc1cccc(Nc2nc(N)nc(-c3oc4ccccc4c3C)n2)c1 | inconclusive [inhibitor, single point] | –
CCOC(=O)N1CCN(Cc2cc(Cl)c3cccnc3c2O)CC1 | inconclusive [activator, full curve] | –
CN(C)c1ccc(N=Nc2ccccc2C(=O)OCC(=O)NC2CCCC2)cc1 | inconclusive [inhibitor, single point] | –
O=C(Nc1ccc2oc(-c3ccncc3)nc2c1)c1ccccc1 | inconclusive [inhibitor, single point] | –
Cc1ccc(NC(=O)Nc2ccc(C(=O)N3CCOCC3)cc2)cc1 | inactive | –
CCCN(Cc1cc2ccc(C)cc2[nH]c1=O)S(=O)(=O)c1ccccc1 | inconclusive [inhibitor, single point] | –
O=C(NCc1ccccc1)c1nc[nH]c1C(=O)NCc1ccccc1 | inactive | –
Cc1cccc(NC2=NCC(=O)N2Cc2ccccc2)c1 | inactive | –
S=c1[nH]nc(-c2ccc(Cl)cc2)n1Cc1ccccc1 | inconclusive [inhibitor, single point] | –
O=C(CCCc1cccs1)Nc1nc2c(s1)CCCC2 | inactive | –
O=Cc1cc(N=Nc2cccc(C(=O)O)c2)ccc1O | inactive | –
O=C(Nc1ccc2c(c1)OCCO2)c1cccc2nc3ccccc3nc12 | inconclusive [inhibitor, partial curve] | –
NNC(=O)c1ccc2[nH]c3c(c2c1)CCCC3 | inactive | –
C=CCn1c(SCc2csc(C)n2)nc2sc3c(c2c1=O)CCC(C)C3 (configuration not stated) | inconclusive [inhibitor, single point] | –
N#CCSc1nnc(COc2cccc3ccccc23)n1-c1cccc(Cl)c1 | – | inactive: -13.4% [at 7.67 µM]
Cc1sc2nc(SCC(=O)c3cc(C)n(CC4CCCO4)c3C)n(C(C)C)c(=O)c2c1C (configuration not stated) | inconclusive [inhibitor, single point] | –
CC(C)n1c(SCC(=O)Nc2ccccc2N2CCCCC2)nc2c1c(=O)n(C)c(=O)n2C | inconclusive [inhibitor, single point] | –
O=C(c1ccccc1Cl)N1N=C(c2ccc(Br)cc2)CC1c1nc2ccccc2[nH]1 (configuration not stated) | inconclusive [inhibitor, single point] | –
O=C(Oc1coc(CSc2ncccn2)cc1=O)c1ccc(Br)o1 | inconclusive [activator, single point] | –
Cc1ccc(NC(=O)C2(N(CC(C)C)C(=O)Cn3nnnc3N)CCCCC2)cc1 | inconclusive [inhibitor, single point] | –
